Experimental data reported in the supplement of paper PMC3334620.
The full ranking holds about 33,000 sequences; the median of “E-score (-0.5 to 0.5)” is about -0.011, and the highest 2% start at about 0.28. The list shows a part of the results.

Target: T1, Gcr1 (UniProt P07261)
T1 sequence: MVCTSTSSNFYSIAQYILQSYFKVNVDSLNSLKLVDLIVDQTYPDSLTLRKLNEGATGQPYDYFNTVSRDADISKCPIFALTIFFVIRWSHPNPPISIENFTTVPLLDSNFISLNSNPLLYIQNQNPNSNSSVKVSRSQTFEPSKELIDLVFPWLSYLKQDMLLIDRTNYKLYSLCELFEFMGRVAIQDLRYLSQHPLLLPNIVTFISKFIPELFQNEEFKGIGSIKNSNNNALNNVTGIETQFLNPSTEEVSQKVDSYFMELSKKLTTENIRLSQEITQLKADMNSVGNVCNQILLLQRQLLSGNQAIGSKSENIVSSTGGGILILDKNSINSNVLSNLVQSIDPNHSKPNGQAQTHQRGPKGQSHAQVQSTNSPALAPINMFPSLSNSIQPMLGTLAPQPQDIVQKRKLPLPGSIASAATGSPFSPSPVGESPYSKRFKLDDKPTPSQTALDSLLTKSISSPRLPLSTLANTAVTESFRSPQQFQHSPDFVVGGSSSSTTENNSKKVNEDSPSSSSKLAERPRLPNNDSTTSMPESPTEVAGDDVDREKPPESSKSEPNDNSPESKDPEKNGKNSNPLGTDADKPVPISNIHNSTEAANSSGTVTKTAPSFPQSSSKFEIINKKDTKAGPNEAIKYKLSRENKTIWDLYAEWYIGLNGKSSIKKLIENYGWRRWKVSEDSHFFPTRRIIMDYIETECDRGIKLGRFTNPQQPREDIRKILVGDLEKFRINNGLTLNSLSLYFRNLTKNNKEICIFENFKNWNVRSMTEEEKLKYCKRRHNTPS
Assay: PBM E-score (8-mer binding enrichment) (E-score (-0.5 to 0.5)); higher = stronger / more preferred TF binding; most listed sequences are background and not binding sites
Conditions: protein concentration: 100 nM; construct: GST-full length
How it was run: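 Using PURExpress in vitro transcription/translation, GST-tagged yeast transcription factors were made in full-length or DNA-binding-domain form. These were applied at about 100-200 nM to double-stranded universal all-10-mer Agilent arrays, and bound protein was detected with fluorescent anti-GST. Scans were normalised with masliner before the Universal PBM Analysis Suite assigned E-scores to ungapped eight-base words pooled with their reverse complements.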

Sequence | PBM E-score
AATGTAGT | 0.0188
TCTACAAA | -0.0185
GGCCCACC | -0.14
AGACCCCT | -0.0881
ATCAATGA | -0.0538
ATTAAACC | 0.0299
ATTCTTGG | 0.279
GGACTTGA | -0.227
CGGACGAA | 0.19
ACGGGCCC | -0.0243
GCGCTCCA | -0.0273
CCTACTCC | -0.0757
GACCCGCA | -0.0961
GAGGGGAA | 0.166
ACGTACTA | -0.118
CGATTCTC | -0.139
ATCGTCGC | -0.0626
CAGCGCGG | -0.145
GACAATAA | 0.0148
CTAGTAAC | 0.102
CGACACTC | -0.251
ATCCTCCG | -0.00232
CTTGTGTA | -0.103
CCGAAAGA | 0.171
CGCATCGC | -0.0699

Sequence | PBM E-score
CCCTTCTC | -0.098
GAATCTCC | 0.0335
ACCTCCTC | -0.194
CCGTTCAC | -0.0674
GAAGGTCA | -0.142
CCTACGAA | 0.192
ATTGATGG | 0.108
CGACGGAG | -0.146
CACCGGTG | -0.0693
GAATTGAC | 0.117
CCAGGGCG | -0.131
ATGCCTTG | -0.254
CTCCACGA | -0.0434
ACATCTGG | 0.105
GAAGGAGC | -0.00629
CGTGGGAC | 0.0757
CTGGCTCA | 0.0519
TCGAACAA | -0.00115
AATATAGG | 0.224
GCTATTCC | 0.00694
CGTCCTTA | -0.0366
GCGGGTCC | -0.0392
GCCCCACA | 0.202
AAAGAGCG | 0.0471
AACAAGCC | -0.0917

Sequence | PBM E-score
TGAACCAA | 0.022
AAATCAAA | 0.0655
ATCGCTAC | -0.0298
ACGGTATG | -0.226
AGTTACCG | -0.0176
AGTTTGTC | -0.218
CGCGCTCC | 0.0902
AACTCCGG | 0.179
GAGTGCTA | -0.0197
ATCTATAG | 0.063
ACATCAAG | 0.0653
CTGATCCA | -0.0593
GTAGACAA | -0.0655
GCGTATAA | 0.353
CATATTCG | 0.0926
GGGCGCAA | 0.126
GGATTATA | 0.0218
AACGTCAC | -0.0523
CACCGAAG | 0.0421
ATGATCCC | 0.143
GATAAATA | 0.126
TGGTTGAA | 0.0618
GGCTAAAC | 0.174
AGTTCGAG | 0.0999
AAATTCAC | -0.0273

Sequence | PBM E-score
CAGACCTA | -0.1
AACTCCGC | -0.289
CAACGACA | -0.0677
CCTTAGTA | -0.0122
ATTCAAAG | 0.0467
ACGGGGAG | -0.00023
CGTAACAG | -0.0691
CGCGGGTC | -0.00854
ATCATGCG | -0.152
CGCAAGGC | -0.127
ATCCTACA | 0.0169
CGGAGCAC | -0.0268
AAACCCTA | -0.0731
CAGACCCC | -0.047
ACCTCTGG | 0.0722
ACATGAGC | -0.137
GAACGATA | 0.00905
GACGAATC | 0.083
AGTAACAG | 0.0784
AAGCCCGG | 0.042
AGATACCC | -0.125
CGCTCATA | -0.237
CAACCAAG | 0.0892
CGGGGGCA | -0.15
CTCGAAAA | 0.0122

Sequence | PBM E-score
CAAAAACG | 0.0293
CTCCAACC | -0.0467
ATGCCCAC | 0.0675
CGGTTCTA | 0.137
GCGTCGCC | -0.00704
CAATTGCC | -0.042
CACCGCCA | -0.0548
GGATCACA | -0.152
ACAAATCA | -0.0754
AGAGATGG | -0.277
GTGATAAC | -0.0427
TAGAGAGA | -0.125
CCCCAGGG | -0.0617
AACCATCG | -0.148
AGCTCAGC | -0.0962
AAGCGGGG | 0.0275
CGTTTAAG | 0.0767
ACGCAGGG | 0.0336
CGCACTGC | -0.0795
GAAAAACC | -0.0156
AAATTTAC | 0.147
CTCGGTGC | 0.00227
AGTCTTAG | 0.114
CAGTTAGG | -0.0288
GGCACTTA | 0.0609

Sequence | PBM E-score
AAATAGGG | 0.18
TACGCCGA | -0.0187
GGTACCGA | -0.0279
CACAGCTG | -0.0818
ATTGTACC | -0.0167
CTCACGGC | -0.167
GTTATACA | -0.099
CCGGCCCC | 0.0519
ACCAGGGT | -0.0566
CAGAATGG | -0.225
GGGTAAAC | -0.0667
GAACAGTA | -0.154
ACCTTGAG | -0.184
TCAATGCA | -0.157
CTGATGTA | 0.0712
AGCGAATA | -0.0785
AAATGTGT | 0.0196
AGACGTCT | -0.18
GTGAATCA | 0.0197
AACTGTAC | -0.166
CTAGTTGC | 0.263
GCGCACAA | 0.0647
AAGAATAT | -0.0605
ACTCCTCG | 0.068
ACAGTGCG | -0.135

Sequence | PBM E-score
GAGCGATA | -0.152
GCGGAAAC | -0.0701
ATACCATC | 0.00422
CCTTGTTA | -0.0693
ATCTGATG | -0.00558
ATAATCGG | 0.088
CGTCCCCC | -0.133
ACGGTGTA | -0.213
AGTCGTTA | -0.202
TCCGTACA | -0.109
ACAAAAAC | 0.0232
GAACATAC | -0.0679
GGCAACAC | 0.143
AGGCAGTA | -0.0662
TAACGAAA | 0.0964
GTATCTAA | 0.16
GAATGGCA | -0.0438
CAGGAGGA | 0.0154
CGCAGATA | 0.168
ATCTCGAC | -0.031
ACGAGCGA | -0.0353
GACTACAA | -0.138
